Test results as given in PubChem BioAssay AID686978 (National Center for Advancing Translational Sciences (NCATS), 2013).
Among all 420,000 compounds or so, about 64,000 (15%) were called active. Inconclusive means that the source gave no clear call. Such entries were picked first, then a sample of the others. Calls come from the whole dose curve; as a rule, active = well fitted inhibition curve with a large enough effect; inconclusive = small, poorly fitted or top-dose-only effect; inactive = flat fitted curve, though single readings scatter. Potencies of inconclusive entries are left out as doubtful fits.

Test: qHTS for Inhibitors of human tyrosyl-DNA phosphodiesterase 1 (TDP1): qHTS in cells in absence of CPT; note: nearly all actives have a fitted effect of over 55% in size
Conditions: DT40 Tdp1-/- hTDP1 cells, no CPT, ATP luminescence, 48 h; activity change, negative = growth inhibition: at 46.2 µM (top of the series) unless noted
Method in brief: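 Cells were dispensed at 400 per well, compounds added by pin tool, plates incubated ≥48 hr at 37 °C, then CellTiter-Glo added for 30 min at room temperature before luminescence reading. Line: DT40 Tdp1-/- complemented with hTDP1; camptothecin omitted.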
% is set by controls: 0 for no effect and ±100 for the full control effect; potency is the fitted concentration of half-maximal effect; tags give direction and shape of the fitted curve.

Compound	Potency	activity change, negative = growth inhibition
Cc1cc(Cl)c(OCCOCCN2CCN(C)CC2)c(Br)c1	inconclusive [inhibitor, partial curve]	–
CC1=NN(C(N)=S)C(=O)C1N=Nc1ccccc1[N+](=O)[O-] (stereo unspecified)	–	inactive: -20.4%
Nc1ncnc2c1ncn2[C@H]1C[C@H](O)[C@@H](COP(=O)(O)O)O1	inconclusive [inhibitor, full curve]	–
COc1cc(NC(=S)NC(=O)c2ccc(F)cc2)ccc1NC(=O)c1ccco1	–	inactive: -21.1%
CCNc1sc(S(C)(=O)=O)nc1S(=O)(=O)c1ccc(Cl)cc1	–	inactive: -4.31%
Cc1c(Br)c(C(=O)NCc2cc3cc(Cl)ccc3[nH]2)nn1C	inconclusive [inhibitor, single point]	–
CC(C)n1ncc2c(C(=O)NCc3ccccc3CN(C)C)cc(C3CC3)nc21	inconclusive [inhibitor, single point]	–
Cc1ccc(OCC(=O)Nc2nnc(S(=O)(=O)N3CCc4ccccc43)s2)cc1	inconclusive [inhibitor, partial curve, poor fit]	–
CCc1ccccc1NC(=S)N(Cc1cccnc1)Cc1ccco1	–	inconclusive: -32.3% [inhibitor]
O=C1C2CCCCC2C(=O)N1c1ccc(NC2CCN(Cc3ccccc3)CC2)c([N+](=O)[O-])c1 (stereo unspecified)	inconclusive [inhibitor, partial curve]	–
COc1ccc(NS(=O)(=O)c2cccc(C(=O)NCc3ccccc3CN3CCOCC3)c2)cc1	inconclusive [inhibitor, partial curve]	–
Cc1[nH]c2ccccc2c1/C=C/c1nc2ccccc2c(=O)[nH]1	active: 10.3 µM	–
COC(=O)[C@]1(CC(C)C)N[C@H](c2ccc(-c3ccc(F)cc3)cc2)[C@@H]2C(=O)N(C)C(=O)[C@@H]21	inconclusive [inhibitor, single point]	–
CS(=O)(=O)N(CC(=O)NCCSCc1c(F)cccc1Cl)c1cccc([N+](=O)[O-])c1	–	inactive: -5.04%
CCc1nc(Sc2nnnn2-c2ccccc2)c2c3c(sc2n1)CCCC3	active: 18.4 µM	–
COc1ccc(OC)c(-c2noc(CSc3nnc(-c4ccccc4)n3-c3ccccc3)n2)c1	active: 5.17 µM	–
O=C(NCCSc1ccccc1)c1ccc(Br)cc1	–	inactive: -4.82%
CCn1cc([N+](=O)[O-])c(C(=O)N2N=C(c3ccc(Cl)c(Cl)c3)CC2c2ccccc2O)n1 (stereo unspecified)	inconclusive [inhibitor, single point]	–
O=C(NCc1cccs1)c1cc(-c2cccc(Cl)c2)on1	inconclusive [inhibitor, partial curve, poor fit]	–
COCc1ccc(C(=O)N2CCc3c([nH]c4ccccc34)C2c2ccccn2)s1 (stereo unspecified)	inconclusive [inhibitor, single point]	–
Cc1ccc(-n2c(O)c(C=Nc3ccccc3-c3n[nH]c(=S)[nH]c3=O)c3ccccc3c2=O)cc1C	inconclusive [inhibitor, single point]	–
N#C/C(=C/c1cc(Br)cs1)C(=O)NCC1CCCO1 (stereo unspecified)	inconclusive [inhibitor, partial curve, poor fit]	–
Oc1cc2c(cc1CN1CCc3ccccc3C1)OCO2	inconclusive [inhibitor, single point]	–

Compound	Potency	activity change, negative = growth inhibition
Cc1nn(-c2ccccc2)c2sc(C(=O)Nc3ccc(Cl)cc3Cl)cc12	inconclusive [inhibitor, partial curve]	–
NC(=O)CSc1cn(Cc2cccc(F)c2)c2ccccc12	inconclusive [inhibitor, single point]	–
CCCCN(C)CCNC(=O)c1nn(-c2ccc(OC)c(Cl)c2)c(=O)c2c1c1ccccc1n2C	active: 18.4 µM	–
CCC(CC)NC(=O)Nc1ccccc1C(F)(F)F	–	inactive: 17.3%
Cc1csc2nc(CNS(=O)(=O)c3ccc(-c4ccccc4)cc3)cn12	active: 18.4 µM	–
C=CCn1c(-c2cccn(Cc3ccc(Cl)cc3Cl)c2=O)n[nH]c1=S	–	inactive: -8.26%
CCCCOCCCNC(=O)C[C@@H]1C[C@@]2(C(=O)OCC)CCC=C2N(CCC2=CCCCC2)C1=O	inconclusive [inhibitor, single point]	–
COc1ccc(C(=O)Nc2nnc(SCc3cc(=O)c4cc(C)ccc4[nH]3)s2)cc1OC	inconclusive [inhibitor, partial curve]	–
c1ccc(CCc2ccccc2-c2nc(-c3ccccn3)no2)cc1	inconclusive [inhibitor, single point]	–
CCCC(=O)N(Cc1cc2cc(OC)ccc2[nH]c1=O)c1ccc(OC)cc1	inconclusive [inhibitor, single point]	–
CCOC(=O)c1oc2cc(C)cc(C)c2c1C	–	inactive: -6.13%
CC(Oc1ccc(Br)cc1)C(=O)NCC(c1ccco1)N1CCCCC1 (stereo unspecified)	inconclusive [inhibitor, single point]	–
O=C(Cc1ccccc1)Nc1ccccc1N1CCCC1	inconclusive [inhibitor, single point]	–
COCCn1c(N)c(Sc2ccc(Cl)cc2)c(=O)[nH]c1=O	–	inactive: -8.46%
OC(CNCC1CCCO1)Cn1c2ccc(Br)cc2c2cc(Br)ccc21 (stereo unspecified)	active: 18.4 µM	–
CC(=O)Nc1ccc(S(=O)(=O)NCCCc2ccccc2)cc1	–	inconclusive: -32.5% [inhibitor]
CCOc1ccc(Cl)cc1CNCCNCCO	inconclusive [inhibitor, single point]	–
CC(/C=C/c1ccc(N(C)C)cc1)=N/N=C1/NC(=O)CC(C(=O)Nc2ccc(Cl)cc2)S1 (stereo unspecified)	–	inactive: -22.7%
CCCCSCCCNC(=O)c1ccc(CS(=O)(=O)c2ccc(OC)cc2)o1	inconclusive [inhibitor, single point]	–
COc1ccc(CNC(=O)Cn2c(=O)c3cccn3c3cccnc32)cc1	–	inactive: -27.2%
OC(CN1C2=NCCN2c2ccccc21)c1ccc2c(c1)OCO2 (stereo unspecified)	active: 23.1 µM	–
Cc1cc(OCCN2CCCCCC2)ccc1[N+](=O)[O-]	–	inactive: 21.2%
Cc1ccc(S(=O)(=O)c2cccc(S(=O)(=O)N3CCCC3)c2)cc1S(=O)(=O)N1CCCC1	active: 18.4 µM	–
